The values below come from paper PMC4157715.

Amino acid sequences for entries named in this document (tags omitted).
UniProt Q10PZ9: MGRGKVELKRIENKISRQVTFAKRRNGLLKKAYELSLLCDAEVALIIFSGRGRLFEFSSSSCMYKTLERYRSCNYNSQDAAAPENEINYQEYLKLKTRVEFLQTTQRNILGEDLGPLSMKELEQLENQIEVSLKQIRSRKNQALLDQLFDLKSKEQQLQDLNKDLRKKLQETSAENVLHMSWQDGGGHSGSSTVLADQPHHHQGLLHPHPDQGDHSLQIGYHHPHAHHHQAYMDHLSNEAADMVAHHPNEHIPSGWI
UniProt Q40704: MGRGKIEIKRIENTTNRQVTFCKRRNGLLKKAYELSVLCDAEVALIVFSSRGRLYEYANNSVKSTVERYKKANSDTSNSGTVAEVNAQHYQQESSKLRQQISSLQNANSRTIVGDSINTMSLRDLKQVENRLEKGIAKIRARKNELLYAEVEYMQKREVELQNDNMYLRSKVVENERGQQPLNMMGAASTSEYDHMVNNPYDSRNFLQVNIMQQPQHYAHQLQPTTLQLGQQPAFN
UniProt Q0DEB8: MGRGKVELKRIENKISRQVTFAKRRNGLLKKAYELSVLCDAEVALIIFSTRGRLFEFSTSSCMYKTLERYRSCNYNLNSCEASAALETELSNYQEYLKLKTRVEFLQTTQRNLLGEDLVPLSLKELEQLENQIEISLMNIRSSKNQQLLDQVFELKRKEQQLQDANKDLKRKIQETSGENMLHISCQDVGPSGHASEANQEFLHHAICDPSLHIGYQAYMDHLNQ
UniProt Q6EU39: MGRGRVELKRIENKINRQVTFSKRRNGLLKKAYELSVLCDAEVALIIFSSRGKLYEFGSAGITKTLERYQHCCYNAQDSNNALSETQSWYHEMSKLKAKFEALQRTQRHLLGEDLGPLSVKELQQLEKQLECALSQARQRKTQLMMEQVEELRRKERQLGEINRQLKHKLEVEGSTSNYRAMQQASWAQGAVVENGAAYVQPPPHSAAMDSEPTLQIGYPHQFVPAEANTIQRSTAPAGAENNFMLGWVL
UniProt Q0J466: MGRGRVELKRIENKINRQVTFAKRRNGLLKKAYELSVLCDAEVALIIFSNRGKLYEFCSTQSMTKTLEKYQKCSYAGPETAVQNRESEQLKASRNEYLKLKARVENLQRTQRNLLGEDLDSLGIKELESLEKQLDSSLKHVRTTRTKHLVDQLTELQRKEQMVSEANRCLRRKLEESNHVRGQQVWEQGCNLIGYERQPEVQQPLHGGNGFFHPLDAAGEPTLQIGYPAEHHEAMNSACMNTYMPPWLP
UniProt Q9SAR1: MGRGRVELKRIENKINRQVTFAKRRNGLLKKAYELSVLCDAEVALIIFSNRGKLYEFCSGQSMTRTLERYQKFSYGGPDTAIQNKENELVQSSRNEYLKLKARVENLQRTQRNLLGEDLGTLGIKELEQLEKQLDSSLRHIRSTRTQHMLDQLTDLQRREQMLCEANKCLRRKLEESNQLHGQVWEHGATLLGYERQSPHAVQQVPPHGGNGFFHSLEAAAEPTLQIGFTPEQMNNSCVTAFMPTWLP
UniProt Q10CQ1: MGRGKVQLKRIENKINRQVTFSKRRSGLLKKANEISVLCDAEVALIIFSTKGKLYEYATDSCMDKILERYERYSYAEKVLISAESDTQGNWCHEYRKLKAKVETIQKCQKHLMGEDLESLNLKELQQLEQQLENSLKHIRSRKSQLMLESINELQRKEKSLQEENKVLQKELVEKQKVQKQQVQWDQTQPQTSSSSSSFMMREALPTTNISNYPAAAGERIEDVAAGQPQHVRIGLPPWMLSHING
UniProt Q7XUN2: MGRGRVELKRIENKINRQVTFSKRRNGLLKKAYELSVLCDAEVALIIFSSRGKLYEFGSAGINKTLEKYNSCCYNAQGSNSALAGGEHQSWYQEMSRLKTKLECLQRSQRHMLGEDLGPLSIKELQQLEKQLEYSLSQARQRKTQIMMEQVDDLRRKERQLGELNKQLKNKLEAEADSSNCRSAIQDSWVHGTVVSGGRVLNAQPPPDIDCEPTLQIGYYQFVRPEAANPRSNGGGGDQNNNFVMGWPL
UniProt Q0D4T4: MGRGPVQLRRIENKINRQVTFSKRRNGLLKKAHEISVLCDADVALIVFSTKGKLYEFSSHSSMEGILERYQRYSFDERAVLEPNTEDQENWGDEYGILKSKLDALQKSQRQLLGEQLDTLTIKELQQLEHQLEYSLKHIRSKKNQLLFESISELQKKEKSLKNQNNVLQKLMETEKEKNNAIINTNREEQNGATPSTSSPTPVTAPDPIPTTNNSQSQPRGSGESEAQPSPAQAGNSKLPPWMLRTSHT
UniProt Q9XJ66: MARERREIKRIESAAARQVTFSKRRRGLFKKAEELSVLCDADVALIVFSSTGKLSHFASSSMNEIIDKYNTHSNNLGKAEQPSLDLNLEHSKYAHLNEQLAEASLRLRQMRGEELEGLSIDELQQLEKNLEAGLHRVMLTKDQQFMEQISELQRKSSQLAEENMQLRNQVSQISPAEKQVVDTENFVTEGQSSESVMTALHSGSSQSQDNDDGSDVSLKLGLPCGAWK
UniProt Q84NC5: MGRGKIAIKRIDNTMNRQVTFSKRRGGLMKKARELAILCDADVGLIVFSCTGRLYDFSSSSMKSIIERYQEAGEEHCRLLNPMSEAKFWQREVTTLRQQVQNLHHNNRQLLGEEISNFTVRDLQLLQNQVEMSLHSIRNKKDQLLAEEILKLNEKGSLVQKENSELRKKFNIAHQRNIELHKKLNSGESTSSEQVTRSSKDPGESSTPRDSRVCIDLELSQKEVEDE
UniProt Q6Q9H6: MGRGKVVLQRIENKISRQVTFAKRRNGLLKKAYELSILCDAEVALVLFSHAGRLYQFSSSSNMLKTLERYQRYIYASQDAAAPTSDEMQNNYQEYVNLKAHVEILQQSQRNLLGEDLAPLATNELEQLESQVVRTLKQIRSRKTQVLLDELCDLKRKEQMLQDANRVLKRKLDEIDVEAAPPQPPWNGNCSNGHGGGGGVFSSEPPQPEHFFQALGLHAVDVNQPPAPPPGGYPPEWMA
UniProt Q69TG5: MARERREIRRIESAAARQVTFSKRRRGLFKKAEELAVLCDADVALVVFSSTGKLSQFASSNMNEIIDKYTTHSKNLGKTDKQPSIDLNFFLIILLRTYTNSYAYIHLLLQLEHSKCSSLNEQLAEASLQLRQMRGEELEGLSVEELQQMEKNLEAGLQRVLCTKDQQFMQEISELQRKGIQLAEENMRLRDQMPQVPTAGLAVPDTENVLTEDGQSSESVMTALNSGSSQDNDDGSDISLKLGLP
UniProt P0C5B2: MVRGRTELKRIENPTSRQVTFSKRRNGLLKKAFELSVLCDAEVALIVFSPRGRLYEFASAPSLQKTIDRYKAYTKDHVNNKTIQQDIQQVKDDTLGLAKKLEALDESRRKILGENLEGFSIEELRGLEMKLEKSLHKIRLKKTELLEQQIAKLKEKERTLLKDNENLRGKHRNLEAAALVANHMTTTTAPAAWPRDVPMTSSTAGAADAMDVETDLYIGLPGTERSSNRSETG

The target of experiment [1] is OsMADS29 (rice) (UniProt Q6H711). In words: split reporter; BiFC: YFPn and YFPc fusions co-transfected into onion epidermal (peel) cells by particle bombardment; 10-12 h at 28 °C in the dark; YFP fluorescence microscopy.
For experiment [2], the target named is M29^NLS-MUT (rice) (UniProt Q6H711). The description is as above.
The target of experiment [3] is M29^∆KC (rice) (UniProt Q6H711). The experiment is described as above.
Experiment [4] concerns the target OsMADS29 (rice) (UniProt Q6H711). In words: two-hybrid; quantitative α-galactosidase assay of the same bait-prey yeast in liquid SD/-Leu-Trp culture; PNP-α-Gal substrate, sodium acetate pH 4.5, 1 h at 30 °C, OD 410 nm.
For experiment [5] the target is unchanged. Nature of the experiment: two-hybrid; M29 bait (pDEST-GBKT7, Gal4 DNA-binding domain) in Y187 mated with preys (pDEST-GADT7, Gal4 activation domain) in Y2H-Gold; growth on quadruple drop out (SD/-His-Leu-Ade-Trp) and blue colour on QDO + X-α-Gal; 3-8 days at 30 °C.
Experiment [6] shares this target. In words: split reporter; BiFC: YFPn and YFPc fusions co-transfected into onion epidermal (peel) cells by particle bombardment; 10-12 h at 28 °C in the dark; YFP fluorescence microscopy. The source holds these as a separate data set.
Experiment [7] addresses M29^∆MADS (rice) (UniProt Q6H711). Described as above.

These are yes or no findings as the source states them, for the method shown. For some of these results: Binding seen in cells or lysates may run through a third protein. Some results given as binding are weak or reduced against the parent protein; the word gives no strength.

Consider M29^LZ-MUT (from UniProt Q6H711 1-260), for which the binding entry in experiment [1] was “binds”.
With M29^NLS-MUT (from UniProt Q6H711 1-260), the binding entry in experiment [2] and in experiment [1] was “binds” throughout.
Turning to “M29^∆KC (from UniProt Q6H711 1-78) (domain or fragment)”, the binding entry in experiment [3] and in experiment [1] was “no binding” each time.
OsMADS1 (from UniProt Q10PZ9 1-257): the binding entry in experiment [4], in experiment [1] and in experiment [5] was “binds” in each case.
Regarding OsMADS3 (from UniProt Q40704 1-236), the binding entry in experiment [4], in experiment [1] and in experiment [5] was “binds” throughout.
On to OsMADS5 (from UniProt Q0DEB8 1-225), for which the binding result in experiment [4], in experiment [1] and in experiment [5] was “binds” each time.
In the case of OsMADS6 (from UniProt Q6EU39 1-250), the binding result in experiment [4], in experiment [1] and in experiment [5] was “binds” each time.
With OsMADS7 (from UniProt Q0J466 1-249), the binding result in experiment [1] was “binds”.
With OsMADS8 (from UniProt Q9SAR1 1-248), the binding result in experiment [1] is reported as “binds”.
Consider OsMADS14 (from UniProt Q10CQ1 1-246), for which the binding entry in experiment [1] is given as “binds”.
With OsMADS17 (from UniProt Q7XUN2 1-249), the binding result in experiment [1] was “binds”; in experiment [5] it was “binds weakly”.
In the case of OsMADS18 (from UniProt Q0D4T4 1-249), the binding result in experiment [4] and in experiment [1] was “binds” each time.
For the molecule OsMADS22 (from UniProt Q9XJ66 1-228), the binding result in experiment [4], in experiment [1] and in experiment [5] was “binds” each time.
Consider OsMADS25 (from UniProt Q84NC5 1-227), for which the binding entry in experiment [1] is “binds”; in experiment [5], “binds weakly”.
For OsMADS29 (from UniProt Q6H711 1-260), the binding result in experiment [4], in experiment [1] and in experiment [5] was “binds” throughout.
As to OsMADS34 (from UniProt Q6Q9H6 1-239), the binding entry in experiment [1] is on record as “binds”.
On to OsMADS55 (from UniProt Q69TG5 1-245), for which the binding entry in experiment [4], in experiment [1] and in experiment [5] was “binds” throughout.
On to OsMADS56 (from UniProt P0C5B2 1-233), for which the binding result in experiment [4], in experiment [1] and in experiment [5] was “binds” each time.

B1: OsMADS33 (protein, UniProt Q2QW55 1-202)
chain: MVRGKVQMRRIENPVHRQVTFCKRRGGLLKKARELSVLCDADVGVIIFSSQGKLHELATNGNMHNLVERYQSNVAGGQMEPGALQRQQVAEQGIFLLREEIDLLQRGLRSTYGGGAGEMTLDKLHALEKGLELWIYQIRTTKMQMMQQEIQFLRNKEGILKEANEMLQEKVKEQQKLYMSLLDLHSQQPTQPMTYGNRFFSI
Turning to B1, the binding result in experiment [4], in experiment [6] and in experiment [5] was “binds” throughout.

B2: OsMADS31 (protein, UniProt Q84NC2 1-178)
chain: MGRGRVELKKIENPTNRQVTFSKRRMGLLKKANELAILCDAQIGVIVFSGTGKMYEYSSPPWRIANIFDRYLKAPSTRFEEMDVQQRIIQEMTRMKDENNRLRIIMRQYMGDDLASLTLQDVSNLEQQIEFSLYKVRLRKQQLLDQQLLEMHSRVCNKRIYRFSILPYLIHYIEIIKF
With B2, the binding entry in experiment [4] and in experiment [6] was “binds” throughout.

B3: OsMADS26 (protein, UniProt Q0J8G8 1-222)
chain: MARGKVQLRRIENPVHRQVTFCKRRAGLLKKARELSILCEADIGIIIFSAHGKLYDLATTGTMEELIERYKSASGEQANACGDQRMDPKQEAMVLKQEINLLQKGLRYIYGNRANEHMTVEELNALERYLEIWMYNIRSAKMQIMIQEIQALKSKEGMLKAANEILQEKIVEQNGLIDVGMMVADQQNGHFSTVPLLEEITNPLTILSGYSTCRGSEMGYSF
In the case of B3, the binding result in experiment [4], in experiment [6] and in experiment [5] was “binds” each time.

B4: M29^∆MADS (domain or fragment, UniProt Q6H711)
chain: MYQTVTNTHFEEINHDQQIFVEMTRMRNEMEKLDGGIRRFTGDDLSNLTLADINDLEQQLEFSVTKVRARKHQLLNQQLDNLRRKEHILEDQNSFLCRMINENHHQAAVGGGDVKAMVEMAPVLSMLTAAPAYYGEESSSTALQLTPPLHAVDAAAAAGFRLQPTQPNLQDPGCSSSSFHAAAAGHGLQLW
Consider B4, for which the binding result in experiment [7] and in experiment [6] was “binds” each time.
